Reference: PubChem BioAssay (NCI)
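Exposure lasted 48 hours, with cells grown in 96-well plates and compounds tested at five concentrations. GI50 marks 50% less growth. TGI marks complete inhibition of growth.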

Test system: NCI-H322M lung
Assay: NCI tumour cell line growth inhibition, 48 h

Q: `O=S1(=O)C[C@@H](NCc2ccccc2)[C@H](NCc2ccccc2)C1` was tested. Which TGI did it give?
A: > 100 µM

Q: With `Cc1cc(C)c(/C=C(\C(=C/c2c(C)cc(C)cc2C)[N+](=O)[O-])[N+](=O)[O-])c(C)c1` as the compound, how does the TGI read?
A: > 100 µM

Q: `CCN1C(=O)C(=C/C=C/c2ccc(N(CC)CC)cc2)C(=O)N(CC)C1=S` was tested. Which TGI did it give?
A: > 100 µM

Q: How did the TGI turn out when `CC1(C)OC2COC3([C@@H]4OC(C)(C)O[C@@H]4CO)OC(C)(C)OC3C2O1` (stereo partly specified) was run?
A: > 100 µM

Q: Which TGI does the source give for `O=C(O)CN(CC(=O)O)C(C(=O)O)c1ccccc1` (stereo unspecified) here?
A: > 100 µM

Q: How did the TGI turn out when `O=C1c2cccc(O)c2C(=O)c2c(OC3OC(CO)C(O)C(O)C3O)cccc21` (stereo unspecified) was run?
A: > 100 µM

Q: How did the TGI turn out when `CCOC(=O)C1CCC(=O)N1C(=O)c1ccccc1Cl` (stereo unspecified) was run?
A: > 100 µM

Q: `O=C(CC1(O)C(=O)Nc2c(Cl)ccc(Cl)c21)c1ccc(Cl)cc1Cl` (stereo unspecified) was tested. Which TGI did it give?
A: 74.4 µM

Q: `Cc1ccc(NC(=O)/C(Cc2nc3ccc([N+](=O)[O-])cc3[nH]c2=O)=N\NC(=O)C[n+]2ccccc2)c(C)c1` was tested. Which TGI did it give?
A: > 100 µM

Q: How did the TGI turn out when `CCOC(=O)C(NC(=O)Nc1ccc(Cl)cc1)(OC)C(F)(F)F` (stereo unspecified) was run?
A: > 100 µM

Q: Which TGI does the source give for `O=C1[C@H]2ON(c3ccccc3)C(c3ccco3)[C@H]2C(=O)N1c1ccc(Cc2ccc(N3C(=O)[C@@H]4ON(c5ccccc5)C(c5ccco5)[C@@H]4C3=O)cc2)cc1` (stereo partly specified) here?
A: > 100 µM

Q: For `Nc1ccc(-c2nn3c(COc4ccc(Cl)cc4)nnc3s2)cc1`, which TGI is on record?
A: > 100 µM

Q: How did the TGI turn out when `O=C(O)/C=C\C(=O)Nc1ccc(S(=O)(=O)c2ccc(NC(=O)/C=C\C(=O)O)cc2)cc1` was run?
A: > 100 µM

Q: How did the TGI turn out when `COc1c(O)c(OC)c2oc(-c3ccc(O)cc3)c(OC)c(=O)c2c1O` was run?
A: > 100 µM

Q: `COc1cc(C(O)c2ccc3c(c2)OCO3)cc(OC)c1OC` (stereo unspecified) was tested. Which TGI did it give?
A: > 100 µM

Q: With `O=C(CC(=O)Nc1ccccc1)NNC(c1cc(N=Nc2ccc(Br)cc2)ccc1O)P(O)O` (stereo unspecified) as the compound, how does the TGI read?
A: > 10 µM

Q: `C=CC1=C(C)C2=NC1=CC1=NC(=CC3=C(C)C4=C(O)[C@H](C(=O)OC)C(=C5NC(=C2)[C@@H](C)[C@@H]5CCC(=O)O)C4=N3)C(CC)=C1C` was tested. Which TGI did it give?
A: > 100 µM

Q: For `Cc1cccc(N(CC(=O)O)S(=O)(=O)c2ccccc2)c1`, which TGI is on record?
A: > 100 µM

Q: `Nc1ccccc1C(=O)C(Br)C(Br)c1ccc2c(c1)OCO2` (stereo unspecified) was tested. Which TGI did it give?
A: > 100 µM

Q: Which GI50 does the source give for `COc1ccc(C2=C(N3CCc4ccccc43)C(=O)NC2=O)cc1` here?
A: > 25 µM

Q: What about the TGI of the same compound?
A: > 25 µM
